From the antibiotic and cytotoxicity screens of Wong et al. (2023)
Some of the results follow.

The compounds below were run on S. aureus RN4220 (assay: growth inhibition call (relative growth <= 0.2)). Details: 50 µM.

Growth inhibition call, inactive:
CC(C)NC(=O)N(C)C[C@@H]1Oc2cc(C#Cc3ccccn3)ccc2S(=O)(=O)N([C@H](C)CO)C[C@H]1C, CO[C@@H](CN(C)C(=O)c1ccc2c(c1)OCO2)[C@H](C)CN([C@H](C)CO)S(=O)(=O)c1ccc(C)cc1, COc1ccc(CN2C[C@@H](C)[C@@H](OC)CN(C)C(=O)c3cc(NC(=O)c4nc5ccccc5s4)ccc3OC[C@H]2C)cc1, O=C(C[C@H]1CC=CC[C@@H](Cc2ccc(F)cc2)C(=O)OC[C@H](Cc2c[nH]c3ccccc23)NC1=O)NCCO, Cc1ccc(S(=O)(=O)Nc2ccc3c(c2)C(=O)N([C@H](C)CO)C[C@@H](C)[C@H](CN(C)S(=O)(=O)c2ccc(Cl)cc2)OCCCC[C@H](C)O3)cc1, CC(C)NC(=O)Nc1ccc2c(c1)C(=O)N([C@H](C)CO)C[C@H](C)[C@@H](CN(C)C(=O)Nc1ccc(C(F)(F)F)cc1)OCCCC[C@H](C)O2, CNC(=O)[C@H]1C[C@H]2CCN(S(=O)(=O)N(C)C)C[C@H]2O1, Cc1noc(C)c1NC(=O)Nc1cccc2c1O[C@@H](CN(C)S(=O)(=O)c1cn(C)cn1)[C@@H](C)CN([C@H](C)CO)C2=O, CC(C)NC(=O)N(C)C[C@@H]1Oc2ccc(NC(=O)CCN3CCOCC3)cc2CC(=O)N([C@H](C)CO)C[C@H]1C, Cc1noc(C)c1NC(=O)N(C)C[C@H]1OCCCC[C@H](C)Oc2ccc(NS(=O)(=O)c3ccccc3)cc2C(=O)N([C@H](C)CO)C[C@@H]1C, C[C@H]1CCCCO[C@@H](CN(C)Cc2ccccc2)[C@@H](C)CN([C@@H](C)CO)C(=O)c2cc(NC(=O)CCC(F)(F)F)ccc2O1, Cc1ccc(S(=O)(=O)Nc2ccc3c(c2)CC(=O)N([C@@H](C)CO)C[C@H](C)[C@H](CN(C)C(=O)Nc2ccc(C(F)(F)F)cc2)O3)cc1, C[C@H]1CN([C@@H](C)CO)C(=O)c2ccccc2-c2ccccc2CO[C@@H]1CN(C)S(=O)(=O)c1ccc(C(F)(F)F)cc1, C[C@@H]1CN([C@H](C)CO)C(=O)CCCn2nncc2CO[C@H]1CN(C)C(=O)Nc1cccc(Oc2ccccn2)c1, C[C@H](N)CCC(=O)NCS(=O)(=O)O, C[C@@H]1CCCCO[C@H](CN(C)Cc2ccncc2)[C@@H](C)CN([C@H](C)CO)C(=O)c2cc(NS(=O)(=O)c3ccc(Cl)cc3)ccc2O1, C[C@H]1CN([C@@H](C)CO)C(=O)c2cc(NS(=O)(=O)c3ccccc3)ccc2O[C@H]1CN(C)C(=O)Nc1cccc2ccccc12, CCS(=O)(=O)NCC[C@H]1CC[C@H](NC(=O)C2CCOCC2)[C@H](CO)O1, C[C@@H]1CCCCO[C@H](CN(C)Cc2ccc(C(F)(F)F)cc2)[C@@H](C)CN([C@H](C)CO)C(=O)c2cc(NS(=O)(=O)c3ccc(F)cc3)ccc2O1, C[C@H]1CN([C@@H](C)CO)C(=O)c2cc(NC(=O)CCN3CCOCC3)ccc2O[C@H]1CN(C)C(=O)Nc1ccc2c(c1)OCO2, COc1ccc(S(=O)(=O)Nc2cccc3c2O[C@@H](CN(C)Cc2ccc(Cl)c(Cl)c2)[C@H](C)CN([C@H](C)CO)C3=O)cc1, COc1ccc(NC(=O)Nc2ccc3c(c2)C(=O)N([C@@H](C)CO)C[C@H](C)[C@@H](CN(C)Cc2ccc(-c4ccccc4)cc2)O3)cc1, C[C@H](CO)N1C[C@H](C)[C@H](CN(C)CC2CC2)Oc2ccc(NS(=O)(=O)c3ccc(F)cc3)cc2CC1=O, C[N+](C)(C)CC(O)CC(=O)[O-] (stereo not given), Cc1ccc(S(=O)(=O)N(C)C[C@H]2Oc3c(NS(C)(=O)=O)cccc3C(=O)N([C@H](C)CO)C[C@@H]2C)cc1, C[C@@H]1CN([C@H](C)CO)C(=O)c2cccc(NC(=O)Nc3cccc4ccccc34)c2O[C@@H]1CN(C)S(=O)(=O)c1ccccc1, O=c1/c(=C/c2cccc(Cl)c2)c2cccc3cccc1c32, O=C(C[C@H]1CC[C@@H](NC(=O)c2ccc(F)cc2)[C@H](CO)O1)NCc1ccncn1, O=C(C[C@@H]1C[C@@H]2c3cc(NC(=O)c4cccnc4)ccc3O[C@@H]2[C@@H](CO)O1)NCc1cc(F)ccc1F, C[C@@H]1CN([C@H](C)CO)C(=O)c2cccc(NC(=O)Nc3ccc4c(c3)OCO4)c2O[C@@H]1CN(C)Cc1ccc(C(F)(F)F)cc1, O=C1O[C@H](c2ccccc2)[C@H](c2ccccc2)N2[C@H]1[C@@H](C(=O)NC[C@@H](O)c1ccccc1)[C@]1(C(=O)Nc3ccc(C#CC4=CCCCC4)cc31)[C@H]2c1ccccc1OCCO, C[C@@H]1CCCCO[C@@H](CN(C)C(=O)Nc2ccccc2)[C@H](C)CN([C@@H](C)CO)C(=O)c2cc(NC(=O)NC3CCCCC3)ccc2O1, O=C1c2ccccc2[C@@]2(Cc3ccccc3N(C3CC3)C2=O)[C@H](c2ccc(CO)cc2)N1Cc1ccccc1, C[C@@H]1CCCCO[C@@H](CN(C)C(=O)Cc2ccccc2)[C@H](C)CN([C@H](C)CO)C(=O)c2cc(NS(=O)(=O)c3cccs3)ccc2O1, C[C@@H]1CN([C@H](C)CO)C(=O)c2cc(NC(=O)Cc3ccccc3)ccc2O[C@H]1CN(C)Cc1ccc(Oc2ccccc2)cc1, CCCCC[C@@H](C[C@@H](CC(=O)O)O[C@H]1O[C@@H](CO)[C@@H](O[C@H]2O[C@@H](CO)[C@@H](O)[C@@H](O)[C@@H]2O)[C@@H](O)[C@@H]1O)OC(=O)C[C@H](O)C[C@H](CCCCC)O[C@H]1O[C@@H](CO)[C@@H](O)[C@@H](O)[C@@H]1O, COc1cccc(CNC(=O)C[C@@H]2CC[C@H]3[C@@H](COC[C@H](O)CN3S(=O)(=O)c3ccc(C)cc3)O2)c1, O=C(C[C@H]1CC[C@H]2[C@@H](COC[C@H](O)CN2S(=O)(=O)c2ccc(Cl)cc2)O1)N[C@H]1CCN(Cc2ccccc2)C1, CCCNC(=O)N(C)C[C@H]1Oc2cc(C#Cc3cccc(F)c3)ccc2S(=O)(=O)N([C@@H](C)CO)C[C@H]1C, CN(C)C(=O)c1cccc(-c2ccc3n(c2=O)C[C@@H]2[C@@H](CO)[C@H](C(=O)NCC4CC4)N[C@H]32)c1
